Results taken from PMC4242493.
Some of the results follow. The list includes weakly bound sequences.

What follows are sequences tested against MaxL homodimer (UniProt P61244) (assay: universal protein-binding microarray (PBM)). Details: PBS-based mixture, 10 nM His-tagged protein dimer, 2% milk, 200 ng/uL BSA, 50 ng/uL salmon testes DNA, 0.02% TX-100; detection with Alexa 488 anti-His …; high values mean tight binding; most listed sequences are background and not binding sites; double strand, one strand shown.
Sequence of UniProt P61244 (P61244 whole entry): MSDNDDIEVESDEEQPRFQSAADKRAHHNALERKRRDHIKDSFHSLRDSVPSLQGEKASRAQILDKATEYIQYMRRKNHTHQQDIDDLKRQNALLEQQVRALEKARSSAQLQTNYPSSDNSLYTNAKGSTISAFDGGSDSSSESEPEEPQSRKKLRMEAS

| Sequence | binding signal (normalized occupancy) |
| --- | --- |
| AATTCTGA | 0.0736 |
| CACGTCTC | 0.0782 |
| CTTCGTAA | 0.0744 |
| GCTTTACA | 0.0705 |
| AGGACGAA | 0.0655 |
| CACAACCA | 0.0825 |
| CCCAATCG | 0.0745 |
| AATTAGGT | 0.0727 |
| CTTACGCC | 0.0728 |
| AGCGACTA | 0.0707 |
| GGATAGAC | 0.0769 |
| CGACTAAA | 0.0736 |
| GAGAGACA | 0.0729 |
| GGGAGTAA | 0.0769 |
| CAAGCGCA | 0.0772 |
| ATCGTCGC | 0.0734 |
| AAGACCTT | 0.0739 |
| TCTGGACA | 0.0737 |
| ATTATTGG | 0.0718 |
| ATCAGAGG | 0.0694 |
| CTAACGGC | 0.07 |
| TCCATGGA | 0.0757 |

| Sequence | binding signal (normalized occupancy) |
| --- | --- |
| AGCCGCAA | 0.0645 |
| TCTTTCCA | 0.0762 |
| CTCCACCA | 0.075 |
| CTCGGCTC | 0.0643 |
| GACGGAAA | 0.0737 |
| AGTCGTTG | 0.0759 |
| AATCACCT | 0.0853 |
| GAACACGC | 0.108 |
| TCACGCCA | 0.0851 |
| AATGTTCA | 0.0776 |
| AGTTAAGG | 0.0713 |
| GCTCCCAA | 0.0669 |
| GAGAGGGA | 0.0743 |
| CCACTGGC | 0.0688 |
| CAAGACAA | 0.0766 |
| TAGAATCA | 0.0767 |
| GCGCTTAA | 0.0733 |
| CACAGGTG | 0.0857 |
| CTGGGATC | 0.0733 |
| ACTCCAAG | 0.0736 |
| TAGGCATA | 0.0735 |
| GCAGGGGA | 0.0757 |

| Sequence | binding signal (normalized occupancy) |
| --- | --- |
| GTTCACCA | 0.0729 |
| GGAATGAA | 0.0745 |
| GGAGTTCA | 0.075 |
| TCTCAGCA | 0.076 |
| AACCGCGC | 0.0744 |
| TCCGCTCA | 0.0723 |
| AATTCGCT | 0.0735 |
| ATCCCCAG | 0.0781 |
| AGAACACA | 0.0789 |
| CTTTGCGC | 0.0698 |
| CCACCGCC | 0.075 |
| ACCGGAGC | 0.0658 |
| GATACTGA | 0.0736 |
| CGCGACGA | 0.0728 |
| CTAACATA | 0.0839 |
| AAAAGTTC | 0.076 |
| GCGGACGA | 0.0691 |
| ACTTTATA | 0.0812 |
| CCTCTGAA | 0.0722 |
| TAAGCACA | 0.0818 |
| CCGGCCCG | 0.0669 |
| CATAACTA | 0.0819 |

| Sequence | binding signal (normalized occupancy) |
| --- | --- |
| GCCCATCC | 0.0737 |
| ACTCTCCC | 0.0751 |
| GTACCATA | 0.0827 |
| CTATGTTC | 0.0761 |
| GATATGTA | 0.089 |
| CATGACAC | 0.0945 |
| AACTAATT | 0.0744 |
| GCGACTGA | 0.0657 |
| ACCCAGTA | 0.0749 |
| GACAACGC | 0.0763 |
| GCGTTTTA | 0.0724 |
| CAGCGTGA | 0.104 |
| CCTGCATC | 0.0807 |
| ACAGCACT | 0.0758 |
| CGGGATAG | 0.0804 |
| CGCACACG | 0.0921 |
| CTCAACGA | 0.0706 |
| CAATACCC | 0.0831 |
| CGTCAAGA | 0.0686 |
| ACGCTAAA | 0.0744 |
